SMILES strings stand for the structures. About 540 (0.36%) of roughly 150,000 compounds showed an effect of 50% or more. The list shows a part of the results.

The subject of this experiment is Plasmodium falciparum. Nature of the experiment: Primary screen in NF54 nanoGlo assay, in single point, at 2uM, 72h; a lower Z score goes with more inhibition. To be noted: timepoint 72 hour. The class given is functional, Erythrocyte.
On to `CC(C)c1cc(C(=O)N2CC(C)(C)[C@@H]2C2CC2)nn1C`, for which the % Inhibition (usually the change of the read-out against control, counted positive when it falls) is given as -8% and the Z score amounted to 1.04.

`CCOc1ccc(N2C[C@@H](C(=O)Nc3cccc4cccnc34)CC2=O)cc1`: the “% Inhibition” value was 2% and the Z score is -0.47.

In the case of `ON1COc2ccc3ccccc3c2C1`, the “% Inhibition” value is listed as -8% and the Z score was 1.02.

`Cc1ccc(NC(=O)Cc2nnc(-c3ccc4ncccc4c3)o2)c(Cl)c1`: the “% Inhibition” value is reported as -6% and the Z score is reported as 0.57.

Consider `O=C1C[C@@H]2CCN(CC3CCCC3)C[C@@H]2CCOc2ccccc2N1`, for which the “% Inhibition” value worked out at 4% and the Z score is on record as -0.69.

As to `Clc1ccc(CN2CCCO[C@@H](CN3CCOCC3)C2)o1`, the “% Inhibition” value stood at 0% and the Z score is 0.

In the case of `CN(C(=O)[C@H]1CC(=O)N(Cc2cccc(C(F)(F)F)c2)C1)C1CC1`, the “% Inhibition” value is given as -18% and the Z score came out at 3.38.

On to `COC(=O)CC[C@@H]1CN(Cc2ccc(F)cc2)CC[C@@H]1N1CCN(c2cccc(C(F)(F)F)c2)CC1`, for which the “% Inhibition” value is listed as 8% and the Z score was -1.02.

Regarding `Cc1sc([C@@H]2CCCN2c2nc3ccccc3c(=O)[nH]2)nc1C(=O)O`, the “% Inhibition” value is 3% and the Z score is -0.52.

In the case of `CC(C)(C)OC(=O)N1CCC2(CC1)CCN2C(=O)c1ccc(O)c(Cl)c1`, the “% Inhibition” value is listed as -8% and the Z score was 0.84.

Take `Cc1ccc(S(=O)(=O)Nc2ccc(NS(=O)(=O)c3ccc(C)cc3)c3ncccc23)cc1`: the “% Inhibition” value was -4% and the Z score was determined as 0.48.

Take `CC(C)c1nn(C)cc1NC(=O)N1CCC(CN2CCNC2=O)CC1`: the “% Inhibition” value was -12% and the Z score came to 1.87.

`O=C(Nc1sc2c(c1C(=O)O)CCC2)c1ccsc1`: the “% Inhibition” value stood at 34% and the Z score was -4.85.

With `Cc1nc2c(c(=O)n1CC(=O)Nc1ccc3c(c1)OCO3)CN(Cc1ccccc1)CC2`, the “% Inhibition” value is reported as 3% and the Z score is -0.33.

On to `O=C(N[C@H]1CCCNC1=O)c1cc(COc2ccc(F)cc2F)[nH]n1`, for which the “% Inhibition” value is on record as -4% and the Z score was found to be 0.56.

`O=C(NCc1cccnc1)c1cc(-c2ccccc2F)nc2cc(-c3ccccc3)nn12`: the “% Inhibition” value is recorded as -4% and the Z score stood at 0.62.

As for `Cn1cc(NC(=O)C2=NNC(=O)CC2)cn1`, the “% Inhibition” value was -13% and the Z score is 2.22.

In the case of `CC(=O)CC(=O)Nc1ccccc1Br`, the “% Inhibition” value is recorded as -6% and the Z score is 0.79.

In the case of `O=C(Nc1ccc(N2CCCN(Cc3ccco3)CC2)nc1)Nc1ccc(F)cc1F`, the “% Inhibition” value was -7% and the Z score is reported as 0.92.

`COc1cc(OC)c2ncc(C#N)c(N(C)CC(N)=O)c2c1`: the “% Inhibition” value is 1% and the Z score is -0.09.

Take `CC(C)(C)c1nsc(NC[C@]2(O)CCOC2)n1`: the “% Inhibition” value was -1% and the Z score is listed as 0.15.

As to `CN(C)CCN1C(=O)N[C@@](CCc2ccccc2)(C2CCN(C(=O)CC3CCCCC3)CC2)C1=O`, the “% Inhibition” value is reported as -10% and the Z score turned out to be 1.87.

On to `COc1cc(C(=O)N2CCCN(c3cc(=O)n(C)c(=O)n3C)CC2)cc(OC)c1OC`, for which the “% Inhibition” value is given as -5% and the Z score is given as 0.71.

Take `C[C@H]1CN(CCC(=O)N2CCc3ccccc3C2)C(C)(C)CO1`: the “% Inhibition” value was determined as 6% and the Z score is -0.74.

Take `COC[C@H](C)Nc1ccc(-n2ccnn2)cc1`: the “% Inhibition” value is -5% and the Z score amounted to 0.85.

On to `O=C1c2cccnc2CN1C1CCN(Cc2ccccc2)CC1`, for which the “% Inhibition” value turned out to be 2% and the Z score is -0.34.

Turning to `CCCNC(=O)c1ccc(COc2ccc3c(c2)[C@H](c2cccc(F)c2)N(C(=O)C(C)C)CC3)o1`, the “% Inhibition” value was -16% and the Z score is reported as 2.02.

With `Cn1ncc2c(N)nc(N3C[C@H]4CCC[C@@H](C4)C3)nc21`, the “% Inhibition” value is listed as -6% and the Z score is listed as 0.95.

`CCN(CCOc1ccc(OC)cc1)C(=O)COC(C)C`: the “% Inhibition” value was found to be 0% and the Z score is on record as -0.08.

Consider `O=C(N1CCOCC1)C(F)(F)C(F)(F)OC(F)(F)F`, for which the “% Inhibition” value is -10% and the Z score is on record as 1.39.

For the compound `Cc1nn(C)cc1CN(C)CCn1cnnc1C`, the “% Inhibition” value is listed as -11% and the Z score is 1.72.

As for `CC(C)C1CCN(Cc2nnc(-c3ccco3)o2)CC1`, the “% Inhibition” value is listed as -4% and the Z score is given as 0.41.

Consider `O=C(N[C@@H]1c2ccccc2CC[C@@H]1O)c1cc(OCC(F)F)ccn1`, for which the “% Inhibition” value is -18% and the Z score stood at 2.12.

Regarding `Cc1ccc(-c2cc(C(=O)N3CCOCC[C@@H]3C)[nH]n2)cc1C`, the “% Inhibition” value is recorded as -7% and the Z score is 1.37.

For `O=C(Cc1ccc2cn[nH]c2c1)N1CCOC[C@@H]1CC1CC1`, the “% Inhibition” value is -7% and the Z score turned out to be 1.12.

As to `CC(C)c1cc(C(C)C)n(C2CCN(C(=O)c3cccs3)CC2)n1`, the “% Inhibition” value is reported as -5% and the Z score worked out at 0.81.

On to `O=C(NC[C@H]1O[C@@H](CO)[C@@H](O)[C@H]1N1CCOCC1)c1cccc(F)c1`, for which the “% Inhibition” value is listed as -13% and the Z score is 1.72.

Turning to `COc1ccc(F)cc1S(=O)(=O)N1C[C@H]2CCCC(=O)N[C@H]2C1`, the “% Inhibition” value was found to be 31% and the Z score was -3.57.

For `CCN=C(NCc1noc(C)n1)N(C)Cc1ccc(OC)c(F)c1`, the “% Inhibition” value is recorded as 1% and the Z score is listed as -0.08.

Take `COc1ccc(-c2nn3c(C(C)=O)c(-c4ccccc4)c4c3n2CCCC4)cc1`: the “% Inhibition” value was 3% and the Z score is on record as -0.41.

With `O=C(c1cccc2c1OCO2)N1C[C@@H]2CCCN(C(=O)c3cccc4c3OCO4)[C@@H]2C1`, the “% Inhibition” value came out at 4% and the Z score was -0.68.

With `O=C(NCc1ccc2c(c1)OCO2)[C@H]1CCCN(c2nnc3ccccn23)C1`, the “% Inhibition” value is reported as -10% and the Z score came out at 1.08.

Regarding `Cc1noc(C2CCCN(C(=O)C(C)n3ccnc3)C2)n1` (centres undefined), the “% Inhibition” value was -9% and the Z score is on record as 0.95.

Turning to `CC(C)Cc1nnc(NC(=O)[C@H](Cc2ccccc2)NC(=O)N2CCOCC2)s1`, the “% Inhibition” value is listed as -16% and the Z score turned out to be 2.

Regarding `CCN(C)c1nc(-c2ccc(F)cc2)ncc1C(=O)NCc1ccccn1`, the “% Inhibition” value is -5% and the Z score is listed as 0.75.

`Cc1cc(Cl)cc(Cl)c1CNC(=O)N(C)CC1(C)COC1`: the “% Inhibition” value is -11% and the Z score came out at 1.85.

Regarding `CCN(C)C(C)(C)CNc1nc2c(c(=O)[nH]1)Cc1ccccc1OC2`, the “% Inhibition” value is -13% and the Z score worked out at 2.15.

In the case of `CC1CC1C(=O)C(C#N)C(=O)NCCc1ccccc1` (centres undefined), the “% Inhibition” value is given as -4% and the Z score came out at 0.61.

Regarding `CCc1nnsc1N(Cc1ccc(F)cc1)c1ccc(OC)c(OC)c1`, the “% Inhibition” value is given as -53% and the Z score is on record as 6.27.

With `CCCc1cc(N2C[C@H](O)[C@@H](N3CCN(C)CC3)C2)nc(C)n1`, the “% Inhibition” value was 0% and the Z score is listed as 0.

Take `N[C@H]1c2ccccc2C[C@@H]1NC(=O)c1ccc(-n2cnnn2)cc1`: the “% Inhibition” value was -13% and the Z score is on record as 1.22.

Take `C=CC[C@]1(CO)CCCN(CCC(=O)NCc2ccc(F)cc2)C1`: the “% Inhibition” value is recorded as -6% and the Z score stood at 0.98.

In the case of `CC[C@@](C)(CO)NC(=O)c1ccc(Cl)c(C)c1`, the “% Inhibition” value is on record as -10% and the Z score turned out to be 0.87.

As to `COCC1(C2CCC2)CN(C(=O)N[C@@H](C)c2ccncc2OC)C1`, the “% Inhibition” value is given as 16% and the Z score is reported as -1.9.

Take `O=C(Cn1ncccc1=O)N1CCN(c2nccn3nc4c(c23)CCCC4)CC1`: the “% Inhibition” value is on record as -13% and the Z score amounted to 1.7.

In the case of `O=C(c1ccc2c(c1)CCO2)N1CCC2(CC1)C[C@H](O)CNC2=O`, the “% Inhibition” value is on record as 1% and the Z score was -0.15.

As for `Nc1nnc(-c2ccc3c(c2)CCC3)o1`, the “% Inhibition” value is -19% and the Z score was 1.75.

As to `Cc1ncccc1CN[C@@H](C)c1ccc(N2CCCC2=O)cc1`, the “% Inhibition” value is given as 5% and the Z score is reported as -0.68.

For `CC(C)NC(=O)CCc1cc2n(n1)CCN(C(=O)c1ccc3c(c1)CCO3)C2`, the “% Inhibition” value is given as -13% and the Z score turned out to be 1.93.

For `CCN(C(=O)[C@H]1CCCN(S(=O)(=O)c2ccc3c(c2)NC(=O)CO3)C1)c1cccc(C)c1`, the “% Inhibition” value is on record as 11% and the Z score is given as -1.75.

For `CCOC1(OCC)[C@@H](c2ccc(Cl)cc2)C(C#N)(C#N)C1(OCC)OCC`, the “% Inhibition” value is given as -27% and the Z score amounted to 3.16.

`c1ccc(-n2nncc2-c2nc(C3CC3)nn2-c2ccccn2)cc1`: the “% Inhibition” value was -4% and the Z score amounted to 0.65.

For `C[C@@H](NC(=O)Nc1cnn(C)c1)c1cccc(Cl)c1`, the “% Inhibition” value turned out to be 12% and the Z score was -1.7.

With `O=C(CC[C@]1(Cc2cccc3ccccc23)CCC(=O)N1)NCCCN1CCCC1=O`, the “% Inhibition” value is recorded as -4% and the Z score amounted to 0.71.

For the compound `O=C(NC[C@H]1CCCN1c1ccccc1)c1ccccc1Br`, the “% Inhibition” value was -13% and the Z score came to 2.53.

As to `CCn1cc(C(=O)N[C@@H](C)c2nc(C)no2)c(=O)c2cc(F)c(F)c(F)c21`, the “% Inhibition” value is given as -13% and the Z score is given as 1.66.

In the case of `CN(C)c1ccnc(NC(=O)NC[C@@H]2C[C@H](c3ccccc3)CO2)n1`, the “% Inhibition” value stood at 0% and the Z score is recorded as 0.

Turning to `COc1cc(OC)cc(-c2cccc(C(=O)NCC[C@H]3CCCN(C)C3)c2)c1`, the “% Inhibition” value is 2% and the Z score is given as -0.26.

As to `CCn1ccc(C(=O)N2CC(N(Cc3cccnc3)S(C)(=O)=O)C2)n1`, the “% Inhibition” value is reported as -4% and the Z score was 0.78.

On to `COc1ccc(Nc2nc(-c3ccc(F)cc3)c3c(n2)-c2ccccc2OC3)cc1Cl`, for which the “% Inhibition” value is -5% and the Z score came out at 0.66.

In the case of `Cc1c(Cl)cccc1C(=O)Nc1nc(C(C)C)nn1C`, the “% Inhibition” value is -8% and the Z score is recorded as 1.02.

For `CCO[C@H]1COC[C@@H]1NC(=O)c1ccc(NCc2sccc2C)cc1`, the “% Inhibition” value was -5% and the Z score is listed as 1.04.

`CCc1oc2ccccc2c1C(=O)N(C)Cc1cnccn1`: the “% Inhibition” value is listed as 9% and the Z score is given as -1.08.

As for `CCCN(CCC)CC(=O)c1c(N)n(CC)c(=O)[nH]c1=O`, the “% Inhibition” value is given as -15% and the Z score came out at 1.32.

In the case of `CCOC(=O)[C@@H]1CN(c2nnc(-c3ccccn3)s2)Cc2ccccc21`, the “% Inhibition” value is listed as -6% and the Z score came to 0.89.

Consider `O=C([C@@H]1CCCO1)N1CCN(c2ccnc3cc(F)ccc23)CC1`, for which the “% Inhibition” value is -10% and the Z score came out at 1.08.

Turning to `COC[C@H](NC(=O)Nc1ccnn1C1CCCCC1)c1ccnn1C`, the “% Inhibition” value is reported as -5% and the Z score was 0.85.

As for `CN(CC(=O)NCc1cccs1)C(=O)CC(C)(C)c1ccccc1`, the “% Inhibition” value is given as -9% and the Z score is recorded as 1.25.

For the compound `Cc1cc([C@@H](O)CCNC(=O)NC2CCOCC2)c(C)o1`, the “% Inhibition” value is -7% and the Z score amounted to 1.05.

As for `O=C(Nc1ccccc1C(=O)N1CCCCC1)[C@H]1CCCN(S(=O)(=O)c2cccs2)C1`, the “% Inhibition” value turned out to be 3% and the Z score was -0.58.

Turning to `CC(C)=C(F)C(=O)N1CCOCC1C1CCCC1O` (centres undefined), the “% Inhibition” value was -10% and the Z score came to 0.83.

`CC(C)CCc1nc(N2CCCN(C(=O)CCC3CCCC3)CC2)c2cnn(-c3cccc(Cl)c3)c2n1`: the “% Inhibition” value is -3% and the Z score is recorded as 0.43.
